# Results published in the supplement of paper PMC11417369.
# The other results are listed elsewhere or left out.
# System: PfSIP2 AP2 domain 1 (GST-tagged)
# Experiment: gcPBM binding intensity (ln(normalized median fluorescence intensity)); higher = stronger DNA binding
# Summary of the method: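 GST-tagged P. falciparum DNA-binding domains, expressed in E. coli (about 25 μg on average), were applied for 1 h to an Agilent 4 × 180k array of primer-extended double-stranded 36-bp intergenic genomic probes plus negative controls. The binding buffer was 1× PBS with 1% milk, 0.2 mg/ml BSA, 0.5% salmon testes DNA and 0.03% Triton X-100. Bound protein was detected with Alexa488 anti-GST antibody and scanned at 488 nm. Binding intensity is the highest Masliner-normalised natural-log median intensity across replicate spots of either probe orientation.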
row,Sequence,gcPBM binding intensity (ln)
1,AAATAATTTGTTGACACACACACACCCATACAGATA [CACACA_site5291],7.23
2,TAAATTTTTTCCTCCTGTACTTATTATATTTTTTTG [XGTACX_site1572],7.02
3,ATTAATTCGTTTTGTACACACATAATGAGTAATTTA [CACACA_site7118],6.97
4,ATAAAAATTGATTATACACACGCGCCCAGACAACAA [CACACA_site5870],7.24
5,ATATAGATGCATAATACACACATCAGATAATTAACC [CACACA_site6871],7.1
6,TTTTTTTTTTTTTTTTGTACTCATATCTACTATCAT [XGTACX_site274],6.99
7,ACAAGGTTTACGGGTAGTACAAATTTTTGAACATCT [XGTACX_site4739],6.76
8,AGCCAAACCTTAAATTTAGCAATAAGTTTACAGGTC [CACACA_negctrl_site360],6.67
9,ATTAAAAGTTTATACAAATAAAAAACAAAACAAAAA [CACACA_negctrl_site1030],7.14
10,TGTGTATTTATAAATACACACCAAATGTTAATATAT [CACACA_site6904],6.97
11,GTAAAATGATATAAATGTACATAATATATATATGTC [XGTACX_site4049],7.02
12,TGTCATATTATAAATTGTACAAATAGTATAATTATT [XGTACX_site581],7.09
13,ATTTTATCTTTAAACTGTACGTATTAATATGTAGAA [XGTACX_site3077],7.09
14,ATAAAAATATTATAAGCACACATATATATATATATA [CACACA_site8781],9.62
15,AGTATACATATATATACACACATATATATATATATA [CACACA_site300],9.52
16,TTATGCCTTTAATATACACACTAATATTTTTTTGGC [CACACA_site5171],6.92
17,AATTTTTTTTTTAGACGTACAAGAAAAAACAAAAAA [XGTACX_site4990],7.07
18,AACTATAAAAATTTTACACACTGTTTTTAAATAATG [CACACA_site5928],7.06
19,TATATGAAGTACACAATACACACTAATTATATATAA [CACACA_site2608],7.12

row,Sequence,gcPBM binding intensity (ln)
1,AAGGAAATATAATATACACACATAAGTGTACTTATA [CACACA_site4030],6.91
2,TAATAAAGTGAATAATGTACATTTTATTTATTATAT [XGTACX_site6614],6.95
3,ATTATATATCCCTATTCACACATGTATTATATAAAT [CACACA_site5486],7.27
4,GAAAAATTAAAAATAACACACACATATATATATTTA [CACACA_site8896],6.98
5,TCAGTAATACTTGAATGTACTTATATTGTTTGTTTG [XGTACX_site6449],6.64
6,CCTATATTAAAACAAGCACACAATCGCATAATATCC [CACACA_site9052],7.09
7,TTAACATATTTGTTAGTGCATTTTGATATTACACAT [GTGCAC_site9978],8.47
8,AAAAAAATTAAATGTACACACACCTTAAACAATGTC [CACACA_site1855],6.88
9,TCTTTTTCTTGACGAGTGCAAAAATTGTGTTTGAAA,9.16
10,ATTTATTTTATATGTTGTACAAACATTTTAAAACAT [XGTACX_site6919],6.95
11,ATAAATAAATAAATAAATAAATAAATAAATATATAT [CACACA_negctrl_site1728],7.22
12,CTAATATCTGTATGCACACACAATAAATACATATTT [CACACA_site5797],7.69
13,AATGCCTTGTTGAGGTGTACTGAATGTTATTTTAAT [XGTACX_site3255],6.99
14,TTTTTTTAAAGAATTATCATAAAATGATTGCATCAT [XGTACX_negctrl_site141],6.59
15,ATCAACATCTAACATTGTACATGTGATGTGTAAAAG [XGTACX_site547],7.01
16,ATATTTGCCCAAGATAGTACATATATATATATATAT [XGTACX_site7756],9.38
17,ATATTGGAGCACAACACACACAAGTATATATATGGA [CACACA_site1546],7.24
18,AAATAGCCAAAAATCATGCACACCTAAAAAAAAAAA [CACACA_site2572],7.52
19,TATATATATATATATTGTACATATATTATTATATAT [XGTACX_site7447],9.24

row,Sequence,gcPBM binding intensity (ln)
1,AATTCTCTTAATAAATAAACACAAATAAATAATAAA [GTGCAC_negctrl_site499],6.93
2,CACATACAGACATACACACACATATATATTAATATA [CACACA_site546],7.37
3,CATACATACAAACACACACACACACCGATATATATA [CACACA_site8952],7.3
4,TATATAATAAAAAAAAGTACTTGGACAATATTATTT [XGTACX_site2802],6.95
5,TTAATTTACATGAACTGTACATAACATTTTTTTAAA [XGTACX_site4672],6.82
6,ATCAAAATATTTATATGTACATATTAAAAATATAGA [XGTACX_site725],7.1
7,TTGTGTTTTATTATTTTATTATTACTATTATAATGT [GTGCAC_negctrl_site484],7.19
8,ATAAAACATAAATACATACACACATAATATATATTA [CACACA_site110],7.07
9,TAAAAATGGGTATGTACACACTTTATTTTTAATACA [CACACA_site5404],7.05
10,TGTAATGTTTACAACACACAAATTAGAAATACAAAA [CACACA_site6924],6.92
11,ACATATTTAAAAACATGTACAAATATATTTATAATT [XGTACX_site661],7.17
12,AAGGAAGATATATACACACATACAAATATATATATA [CACACA_site2181],8.66
13,TTATTTATAATGTTGTGTACATATATGAATATACCA [XGTACX_site3111],6.93
14,AAGAAAAAATAAAGCACACAAATATTTTAAAAACAC [CACACA_site3325],7.63
15,TTTTTTCAATTGGAAATTATTTTACAATGAAGGGTA [XGTACX_negctrl_site469],7.09
16,TATTTTACGTATTGTTGTACTTGAAACAAATATACA [XGTACX_site8778],7.15
17,TATAAACATAAATATACACACAAACATATATGTATT [CACACA_site8324],6.93
18,CGTTTCCCCAATGGTTGTACAATATATATATATATA [XGTACX_site8641],9.58
19,AGACATATAATATATACACACATATATATATATATA [CACACA_site1066],9.06
